From article PMC12136788
The other results are listed elsewhere or left out.

T1: UNK ZnF1-3 (human, UniProt Q9C0B0 31-174)
T1 sequence: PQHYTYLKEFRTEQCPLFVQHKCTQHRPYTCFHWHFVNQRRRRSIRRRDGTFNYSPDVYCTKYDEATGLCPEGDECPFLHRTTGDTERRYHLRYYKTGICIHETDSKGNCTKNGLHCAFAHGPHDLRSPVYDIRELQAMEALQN

B1: chr2:202488911:202488912:-_ENSG00000155755_ENST00000286196|hu_mus|hu_hu_hu_mus_False|38_98 (ssRNA)
RNA: GGGAGUUCUACAGUCCGACGAUCAUUGAAACAUUUUCAUAAUAUUGCAGUAGCAUUUCAGCAUUAUGUAACAAAAGCUCAAUUGUAAAUACAUGUAUAUACAUCUUAUACACUUAAAAACACGAGUGGGGAGCGCAGGCGCCACAACAGAGGAUUGAGCAUCA
B2: chr1:245006428:245006429:+_ENSG00000203667_ENST00000366528|hu_hu|FALSE|FALSE (ssRNA)
RNA: GGGAGUUCUACAGUCCGACGAUCGAUUGUUCAAUUGCUGCUGCUGCCGUUGUGUUUUCUUUCAGGAUCGAGGUGGGUACCUUCAUAUAAUAUCUUCUUUUUAAUUUCUUCUCUGGCAAUUCUUUCCUGGAUUCUUUGCUUUGCCAACAGAGGAUUGAGCAUCA
B3: 26022335_26029148_505_CDS_ENSG00000143970_ENST00000336112|human|control|control (ssRNA)
RNA: GGGAGUUCUACAGUCCGACGAUCAUCUGACUGACCAUCACUGCUUUCUUCUGAACCUUCUGACAGCUCUUUCACCCCAUCCGGCACAUCUUUCUUCAAAGUAUAUACUCCCAUUCUACCUGGAACCUUAUAGAAGAUGCCCUCCAACAGAGGAUUGAGCAUCA
B4: chr11:80292881:80292882:+_ENSMUSG00000048895_ENSMUST00000053413|mus_hu|FALSE|FALSE (ssRNA)
RNA: GGGAGUUCUACAGUCCGACGAUCAAACUCAACUGUUUAGAAACAGCUUUAAAUUAACGGGUGGGGGUGGGGUCACCACAUCGCCUUCCCCCCAGCUCUGCAGGACAAAUGUCAUGUGCACCAGCAAGAGGCCUUAGCCCUUAGCAACAGAGGAUUGAGCAUCA
B5: chr2:27599549:27599550:+_ENSG00000115234_ENST00000233575|hu_mus|FALSE|FALSE (ssRNA)
RNA: GGGAGUUCUACAGUCCGACGAUCCAGACAUCCAGGCAGCUGAGAUUACAGAUCCUCAUCUCCAAUGCCCUCGAAGGCGAAAUUGCCGUGGACGGCACUGGCACUGGCAUCUGUGCUGGGACUGCCAAUCCCCCGCAAGCUCACCAACAGAGGAUUGAGCAUCA
B6: chr15:98781188:98781189:-_ENSMUSG00000072235_ENSMUST00000097014|mus_mus|FALSE|FALSE (ssRNA)
RNA: GGGAGUUCUACAGUCCGACGAUCCCUGUUUAGGUUAGUGUAGGUUGGGCGCUCAAUGUCGAGGUUUCUACGACAGAUAUCAUAGAUGGCCUCAUUGUCUACCAUGAAGGCACAAUCAGAGUGCUCCAGGGUGGUGUGGGUGGUCAACAGAGGAUUGAGCAUCA
B7: chr8:101271117:101271118:-_ENSG00000034677_ENST00000519449|hu_mus|FALSE|FALSE (ssRNA)
RNA: GGGAGUUCUACAGUCCGACGAUCGCAAUCACUGGAGCCGUGACUACAGGACGUUCUCAUGCUUUCUAAGUCUGAGCAGCUAAAUUCAGAAAAAUGACUGGAGUGGGAAUCUGCUACAGACGGCAUGCUGUCACUGAGGGAUGGCAACAGAGGAUUGAGCAUCA
B8: 119673137_119674254_1728_3pUTR_ENSG00000158290_ENST00000371322|human|control|control (ssRNA)
RNA: GGGAGUUCUACAGUCCGACGAUCAUAUGAUCAUAAUUUUAUCCAACAUUUUCUCAAGUUCUUCAUCUGUAGCUUCUUUGUUGCCUGCACGAAGUUUUGAAUCUACAUACUUAGCUAUAAGUUCAGCUGGUUUAUUUGGUCUUUCAACAGAGGAUUGAGCAUCA
B9: 39222270_39222390_3320_CDS_ENSG00000115904_ENST00000402219|human|control|control (ssRNA)
RNA: GGGAGUUCUACAGUCCGACGAUCAAAAGGGCUCGAAUGAUCGGAAUCAAAUACACUGCAAACAUCUGUGGUACUGGAAGCACCAGAAGCAGGCGGAGGUGUUAACGGUGUUCUUGGAGAAUUUGGUGCAGAUGCUGUACUUUCCAACAGAGGAUUGAGCAUCA
B10: chr14:59828787:59828788:+_ENSMUSG00000035469_ENSMUST00000043227|mus_mus|motif|central (ssRNA)
RNA: GGGAGUUCUACAGUCCGACGAUCGAGUGAAGAUUGGCCACUUUCCUACAUCCACCAUGACUGUGGCUUUGGACAAUUCCGGUAAAUAAGCUGACAUCUCUGCUGCGUGCUCCGGGUUCCUCCCCCGCAGGGCGGACAGCGCAGCAACAGAGGAUUGAGCAUCA
B11: chr4:76721835:76721836:+_ENSG00000138768_ENST00000264904|hu_mus|hu_hu_hu_mus_True|18_38 (ssRNA)
RNA: GGGAGUUCUACAGUCCGACGAUCGUUUGGCUGGGGUUUCUGAGACGCUCUGGAAUAUAACUCAUGUUUGCUAAUAAAUCCUAGUUUCUCUAUGAAAUCUCUUUGCCCAAUCCUCUUUCAAUCAGUUUGCUUUAGUUUCUCUUUCAACAGAGGAUUGAGCAUCA
B12: chr11:10819206:10819207:-_ENSG00000110321_ENST00000525681|hu_mus|FALSE|FALSE (ssRNA)
RNA: GGGAGUUCUACAGUCCGACGAUCUGAUGGUAGACUAUGAUUAAGACAUCACACUACAAAAACCUUAUGCAGAAGGAAACCUUACUGACGUGCUUCUGCUUUAAAUAUUGUGAAAAAACGUUACAGCGGAAUGAAUUUUCGCAGCAACAGAGGAUUGAGCAUCA
B13: chr2:225400320:225400321:-_ENSG00000036257_ENST00000409096|hu_hu|FALSE|FALSE (ssRNA)
RNA: GGGAGUUCUACAGUCCGACGAUCGUUCUCCACAUUAUUUUGUUGUACAUACACACGGUCCAUGUACAUUAGUAUGUCUCUAAUCAUCACCAUAGCUGUUUGAUGAUCAUUCCAAGCUUGAUUUAGCGUUUGAAGAAAGUUGUUCAACAGAGGAUUGAGCAUCA
B14: chr1:244855233:244855234:+_ENSG00000121644_ENST00000302550|hu_mus|hu_hu_hu_mus_True|28_58 (ssRNA)
RNA: GGGAGUUCUACAGUCCGACGAUCCAUCAGAUGGUAGGCGUUGCCCUUAUACUCUUUCCCCAGUUCUUCUACAAUUUUUUCUAUAUCAUCUUCUAGAAAGUCCGUACUCCCUAAAACAACAGCUUCUUUAAAUUUAAAUGUUUCCAACAGAGGAUUGAGCAUCA
B15: 3699308_3700660_1297_CDS_ENSG00000130764_ENST00000378251|human|control|control (ssRNA)
RNA: GGGAGUUCUACAGUCCGACGAUCAUCCAGCAAGUGAAGGUAUCUGUGCAGGCCCGACACACUCUGCCGCUUCUUCUGCUUCCUCUGCUCCUCGGCCUCCAGCUGCAGCUGCCGCACCAGCUCCUUGGCCUUGGCUUCUUUCCGCAACAGAGGAUUGAGCAUCA
B16: chr3:88228879:88228880:-_ENSMUSG00000050144_ENSMUST00000057935|mus_mus|FALSE|FALSE (ssRNA)
RNA: GGGAGUUCUACAGUCCGACGAUCAUAUCCACUGCCUCCUCGACAGGUUGAACCUUAGGUACCUCUGAUCCUUCAAGACACCUAAGCACCGUGGUCGCUUUCCUUCUCAGACCCCAGCGCUUUAGCCGCGUCUGAGACUGGGACCAACAGAGGAUUGAGCAUCA
B17: chr11:86538636:86538637:-_ENSMUSG00000047126_ENSMUST00000103186|perfect_dup|FALSE|FALSE (ssRNA)
RNA: GGGAGUUCUACAGUCCGACGAUCUAACCAUUUCUCCAAAAGCUGUUUUCGCCCUUGCUGAAGUACAGGCCUACAAAGCUCUAAGGAUUCGUAUUUGUUGAGCUGUCCCUGGUCCAAAAGGAUACCAAAGUACUGAAGUAGAGGCAACAGAGGAUUGAGCAUCA
B18: chr3:90056536:90056537:+_ENSMUSG00000052310_ENSMUST00000015467|mus_hu|FALSE|FALSE (ssRNA)
RNA: GGGAGUUCUACAGUCCGACGAUCUCCUUAUGUAUAGUGUCCAACCUCUGAUUCUAGCAGUCAAGUGUCUUCCCCAAUCCUAAUGUCCCCUGAUAUGUCUCUAGCGACUUGACCAUCUCUUGUUCCUUGGGACUGGGGCCAGCCCAACAGAGGAUUGAGCAUCA
B19: chr20:42825305:42825306:-_ENSG00000132823_ENST00000255174|hu_hu|FALSE|FALSE (ssRNA)
RNA: GGGAGUUCUACAGUCCGACGAUCAUUAAAUCAGAGACGGUUUAAAUCAGUCUUGUAACUUCUAAUAUUCUGGGCUGGCAACUACAGCAUGACAAAUGUUUAGUGCAGUUACAAAAUCACAUUUUACUUUCCUUGGCUAGCAAACAACAGAGGAUUGAGCAUCA
B20: chr17:35975015:35975016:-_ENSMUSG00000001525_ENSMUST00000001566|mus_hu|FALSE|FALSE (ssRNA)
RNA: GGGAGUUCUACAGUCCGACGAUCAUCUGGUUGCCACACUGACCAGCCUGGAUGUGCACGAUUUCCCUCAUGGUUAAAAUUUAAUUUUUUUGCUCGCCUCAAGGUAUGUAUGGGGCAAGAAAAUAAGUAAUUUUUUUUCUCCGCCAACAGAGGAUUGAGCAUCA
B21: chr3:176740097:176740098:-_ENSG00000177565_ENST00000430069|hu_mus|hu_hu_hu_mus_True|18_48 (ssRNA)
RNA: GGGAGUUCUACAGUCCGACGAUCUGUUUUGUAUACCACAAAAGGAGGCACUUUCAGUAUCUGCAAAAGGUGUUUAGUCCUAAAACAUACUUACCUAGAGGAUAACUCAGGAAAACAUCAAUACAAUCUCUAAGACCUACUCCACAACAGAGGAUUGAGCAUCA
B22: chr4:76721835:76721836:+_ENSG00000138768_ENST00000264904|hu_mus|hu_hu_hu_mus_True|8_38 (ssRNA)
RNA: GGGAGUUCUACAGUCCGACGAUCGUUUGGCUGGGGUUUCUGAGACGCUCUGGAAUAUAACUCAUGUUUGCUAAUAAAUCCUAGUUUCUCUAUGAAAUCUCUUUGCCCAAUCCUCUUCUCUAUUAGUGUUUUAGCUUUCUCUUUCAACAGAGGAUUGAGCAUCA

Target: T1, UNK ZnF1-3
Experiment: nsRBNS (natural sequence RNA bind-n-seq); RBNS binding buffer (assumed for nsRBNS): 25 mM Tris pH 7.5, 150 mM KCl, 3 mM MgCl2, 0.01% Triton X-100, 500 ug/ml BSA, 20 U/ml SUPERase-In, 4 C; UNK is unkempt and MSI1 is Musashi-1; names of the RNAs are library labels; protein concentration not given here; high values mean tight binding

Binder	binding signal
B1	0.861 enrichment R
B2	0.643 enrichment R
B3	1.05 enrichment R
B4	1.1 enrichment R
B5	0.814 enrichment R
B6	0.649 enrichment R
B7	1.55 enrichment R
B8	0.343 enrichment R
B9	1.17 enrichment R
B10	1.21 enrichment R
B11	0.446 enrichment R
B12	0.952 enrichment R
B13	0.505 enrichment R
B14	1.49 enrichment R
B15	0.701 enrichment R
B16	0.592 enrichment R
B17	0.908 enrichment R
B18	0.662 enrichment R
B19	0.802 enrichment R
B20	0.844 enrichment R
B21	0.874 enrichment R
B22	0.471 enrichment R
